# Source: publication PMC12136788
# The list shows a part of the results.
# B1: chr1:32075697:32075801:+|CDS|ENSG00000121775|unk|FALSE|unique (ssRNA)
# RNA: GGGAGUUCUACAGUCCGACGAUCCGAGCUGCCAGUCCAGGCCAGCAUUCUGUUUGAGUUGCAGCUCUUCUUCUGCCAGCUCAUAGCACUCUUCGUCCACUACAUCAACAUCUACAAGACAGUGUGGUGGUAUCCACCUUCCCACAACAGAGGAUUGAGCAUCA
# B2: chrX:24560996:24561098:-|3pUTR|ENSG00000102230|unk|FALSE|unique (ssRNA)
# RNA: GGGAGUUCUACAGUCCGACGAUCACUCAAGACUUUUUACAGAGAACUGUGGGCUCAGUUAUGAUCUCAGCAUCUGAAUGGUCUAGGUAGUAUCACCAUUAUCUCUGGCCCUAGGUUUGCCAAGUAGGAUGAAGACUCUAAGUGCAACAGAGGAUUGAGCAUCA
# B3: chr3:125012942:125013043:-|CDS|ENSG00000173706|msi1|total|mutant (ssRNA)
# RNA: GGGAGUUCUACAGUCCGACGAUCGCCUCUUAUGACCACUCCUGGCACCCUGUCAAGCACAGCAUCUCUGGUCACUGGCCCUACCGCCGUACAGACUACAGCUGGAAAACAGCUCUCGCUGACCCAUCCUGAAAUACCCGUUCCCAACAGAGGAUUGAGCAUCA
# B4: chr10:29523788:29523889:-|CDS|ENSG00000197321|unk|total|mutant (ssRNA)
# RNA: GGGAGUUCUACAGUCCGACGAUCAAUGCAAGUGCCACUGACUAUAAGUUUUCUUCUUCAACCGAAAAUUCGGACUCUCCAGUCCGAAGCAUUCUGAAAUCGCAAGCUUGGCAGCCUUUGGCCGAGGGCCGCGAGAACAAGGGACAACAGAGGAUUGAGCAUCA
# B5: chr15:43232589:43233190:-|three_prime_utr|ENSG00000104055|control|control|control (ssRNA)
# RNA: GGGAGUUCUACAGUCCGACGAUCGCUCCAGCAAGAGCCACAGAGGGGAUGACGUGUUCAUUUUCUGUCUCUCCUGACUCCACUAGAAAUUUAAGCUCCAUGAGGGCAAAGACUUUGCUUUGUUUACUACCCCUAUACUCAGAACAACAGAGGAUUGAGCAUCA
# B6: ENSG00000198589:be:win_1151|CDS|ENSG00000198589|bound_else_gene|NA|bound_elsewhere_windowed (ssRNA)
# RNA: GGGAGUUCUACAGUCCGACGAUCUGGGAUACAAGGGUACAUUUAAAUUCAAAGCAGAAAGCGACCUUUUCCUUGCUGAGCAUCACAAACUUUUAUUGUACGAUGGGAAACUCUCUAGUGCCAUUGCAUUCACGUACAAUCCACCAACAGAGGAUUGAGCAUCA
# B7: chr10:103999120:103999255:+|CDS|ENSG00000065613|unk|total|mutant (ssRNA)
# RNA: GGGAGUUCUACAGUCCGACGAUCAUCUAAGGACAGACCCUAUGACUACAAAGCUGAUGUUUGGUCCCUGGGUAUCACUUUAACCGAAAUGGCUGAGACCGAACCACCUCAUCAUGAAUUAAAUCCAAUGCGAGUGCUGCUAAACAACAGAGGAUUGAGCAUCA
# B8: chr7:115017934:115018035:+|3pUTR|ENSG00000135272|unk|total|mutant (ssRNA)
# RNA: GGGAGUUCUACAGUCCGACGAUCUGAGAUGAAACGCCGUUUCCCGUUAUAUCAUUACUUAAAGGGCUUAAAAAGAAAAAACUCCGCAAACUUUUGAAUCUUUCUUUUAUUGCUAUUUACACAUACAUACACACAUACAAAACCCAACAGAGGAUUGAGCAUCA
# B9: chr1:90030187:90030288:+|3pUTR|ENSG00000162664|unk|FALSE|unique (ssRNA)
# RNA: GGGAGUUCUACAGUCCGACGAUCACCCAGUUCAAGUCAUGAUAAUUUCUUGUUAACUAAUCUUGAUUCCACCCUUACCAUGAUAGAUUCAGUUUUCUACACAAGUAUAAGCUUUUAAAAAUGUAAUUCAGAUGAUGUUAAUCUCAACAGAGGAUUGAGCAUCA
# B10: chr2:200815332:200815484:+|CDS|ENSG00000082153|unk|FALSE|bound_elsewhere (ssRNA)
# RNA: GGGAGUUCUACAGUCCGACGAUCUCAGUUUCAAGACUGUAUUAUUCAAGGCUUAACUGAAACCGGUACUGAUUUGGAAGCAGUAGCUAAGUUUCUUGAUGCUUCUGGAGCAAAACUUGAUUACCGUCGAUAUGCAGAAACACUCAACAGAGGAUUGAGCAUCA
# B11: chr20:2117184:2117286:+|CDS|ENSG00000125834|unk|total|mutant (ssRNA)
# RNA: GGGAGUUCUACAGUCCGACGAUCGCUCCUGGGGACCUACAUUAAACAGGGGACUGAGAUCGUCCCUGUUGGUGAGGCGCUGCCCGAAAACCCAAAGAUGGAGUUGCACAUCCCCCAAAAACGCAGGACUUCCAUGUCUGAGGGCAACAGAGGAUUGAGCAUCA
# B12: chr14:31448131:31448454:-|CDS|ENSG00000129480|control|control|control (ssRNA)
# RNA: GGGAGUUCUACAGUCCGACGAUCUGUGACUCUAUGUGAAAAAGAAGUAGCUGCUAAUAGCAAGUGUGCUGAAGCUAGGGUUGUAGUGGAACAUGGCACUUAUGGGAACAGGCAGGUGUUAAAGCUGGACACCAACGGACCAUUCAACAGAGGAUUGAGCAUCA
# B13: ENSG00000044574:stop:overlap|stop_codon|ENSG00000044574|stop_codon|NA|stop_codon (ssRNA)
# RNA: GGGAGUUCUACAGUCCGACGAUCAUGGAAGUGCAGGCCCUCCCCCAACUGGUGAAGAGGAUACAGCAGAAAAAGAUGAGUUGUAGACACUGAUCUGCUAGUGCUGUAAUAUUGUAAAUACUGGACUCAGGAACUUUUGUUAGGCAACAGAGGAUUGAGCAUCA
# B14: chr6:134965076:134965177:-|3pUTR|ENSG00000112339|unk|FALSE|unique (ssRNA)
# RNA: GGGAGUUCUACAGUCCGACGAUCAAAGGAACAAUGUGCAAUUGAUAUGUUUUUAGAUGAGAGAGAAAAAUUAAAGCUAAAAUUAGCUGCAAAGAAGUAUUAAUAAUCACCUCUGCAAAAAUUCUAAGUUGCCAACUGGCAAAGCAACAGAGGAUUGAGCAUCA
# Target: T1, UNK ZnF1-6 (called full-length) (human, UniProt Q9C0B0 30-357)
# T1 sequence: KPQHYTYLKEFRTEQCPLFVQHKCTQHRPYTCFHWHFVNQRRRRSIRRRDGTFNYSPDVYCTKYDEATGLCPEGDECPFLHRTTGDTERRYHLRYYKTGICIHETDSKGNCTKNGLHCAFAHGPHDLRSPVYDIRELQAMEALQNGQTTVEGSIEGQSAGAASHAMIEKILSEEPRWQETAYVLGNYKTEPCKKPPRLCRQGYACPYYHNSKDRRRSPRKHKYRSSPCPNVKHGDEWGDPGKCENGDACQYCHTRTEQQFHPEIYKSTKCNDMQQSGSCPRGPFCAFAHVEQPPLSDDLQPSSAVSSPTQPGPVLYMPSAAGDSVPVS
# Experiment: nsRBNS (natural sequence RNA bind-n-seq); RBNS binding buffer (assumed for nsRBNS): 25 mM Tris pH 7.5, 150 mM KCl, 3 mM MgCl2, 0.01% Triton X-100, 500 ug/ml BSA, 20 U/ml SUPERase-In, 4 C; UNK is unkempt and MSI1 is Musashi-1; names of the RNAs are library labels; protein concentration not given here; high values mean tight binding
row,Binder,binding signal
1,B1,0.551 enrichment R
2,B2,0.626 enrichment R
3,B3,0.682 enrichment R
4,B4,0.51 enrichment R
5,B5,1.64 enrichment R
6,B6,0.389 enrichment R
7,B7,0.475 enrichment R
8,B8,1.38 enrichment R
9,B9,0.513 enrichment R
10,B10,0.189 enrichment R
11,B11,1.01 enrichment R
12,B12,0.612 enrichment R
13,B13,1.08 enrichment R
14,B14,0.714 enrichment R
